Results as given in the supplement of paper PMC9446081.
Screen size: about 39,000 compounds; about 220 (0.56%) showed activity. Some of the results follow.

system: Escherichia coli K-12 BW25113; assay: relative growth (OD600 normalised to plate interquartile mean) (fraction); higher = less growth inhibition, active = 0.2 or less; details: 50 µM; LB; incubation time: overnight (16-24 h)
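Also: static incubation at 37 °C against the wild-type strain, values averaged over two biological replicates.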

Compound	relative growth
C[C@@H]1CN([C@H](C)CO)C(=O)CCCn2cc(nn2)CO[C@H]1CN(C)Cc1ccc(C(=O)Nc2ccccc2N)cc1	inactive: 0.852
C[C@@H]1CCCCO[C@H](CN(C)C(=O)CCC(F)(F)F)[C@@H](C)CN([C@@H](C)CO)C(=O)c2cc(NC(=O)c3ccccc3)ccc2O1	inactive: 1
CC(C)NC(=O)N(C)C[C@@H]1Oc2ccc(NS(=O)(=O)c3ccccc3)cc2CC(=O)N([C@@H](C)CO)C[C@H]1C	inactive: 0.969
O=C(C[C@@H]1C[C@@H]2c3cc(NS(=O)(=O)c4ccc(F)cc4)ccc3O[C@@H]2[C@H](CO)O1)NC1CCCCC1	inactive: 0.961
COc1ccccc1-c1ccc2c(c1)O[C@@H](CN(C)C(=O)c1ccncc1)[C@@H](C)CN([C@@H](C)CO)S2(=O)=O	inactive: 0.993
C[C@@H]1CN([C@@H](C)CO)C(=O)Cc2cc(NC(=O)Nc3cccc4ccccc34)ccc2O[C@H]1CN(C)Cc1ccc(Oc2ccccc2)cc1	inactive: 1.02
COc1cc(C=Cc2ccc(O)cc2)cc(OC)c1	inactive: 0.796
COc1ccc(NC(=O)Nc2ccc3c(c2)C(=O)N([C@H](C)CO)C[C@@H](C)[C@H](CN(C)S(=O)(=O)c2cccs2)OCCCC[C@@H](C)O3)cc1	inactive: 1.04
C[C@H]1CN([C@@H](C)CO)S(=O)(=O)c2ccc(C#Cc3ccccc3)cc2O[C@@H]1CN(C)C(=O)CN(C)C	inactive: 0.955
C[C@@H]1CN([C@H](C)CO)C(=O)c2c(c3ccccc3n2C)-c2ccccc2CO[C@H]1CN(C)S(=O)(=O)c1ccc(C(F)(F)F)cc1	inactive: 1.03
C[C@@H]1CN([C@@H](C)CO)C(=O)c2cccc(NC(=O)c3ccc(-c4nccs4)cc3)c2O[C@H]1CN(C)C(=O)Nc1cccc2ccccc12	inactive: 0.886
C[C@@H]1CCCCO[C@@H](CN(C)CC2CCCCC2)[C@H](C)CN([C@H](C)CO)C(=O)c2cc(NC(=O)Nc3ccccc3)ccc2O1	inactive: 0.798
CC(C)NC(=O)Nc1ccc2c(c1)C(=O)N([C@@H](C)CO)C[C@@H](C)[C@@H](CN(C)Cc1ccc3c(c1)OCO3)O2	inactive: 0.999
C[C@H](CO)N1C[C@H](C)[C@H](CN(C)S(=O)(=O)c2ccc(Cl)cc2)OCCCC[C@H](C)Oc2ccc(NC(=O)Cc3ccccc3)cc2C1=O	inactive: 1.01
COc1ccc(S(=O)(=O)N(C)C[C@@H]2OCCCC[C@@H](C)Oc3ccc(NC(=O)C4CCCCC4)cc3C(=O)N([C@H](C)CO)C[C@@H]2C)cc1	inactive: 1
C[C@@H]1CN([C@H](C)CO)C(=O)Cc2cc(NS(=O)(=O)c3ccc(Cl)cc3)ccc2O[C@H]1CN(C)C	inactive: 0.992
C[C@@H]1CN([C@@H](C)CO)C(=O)c2cc(-c3cccc(C(=O)N(C)C)c3)cnc2O[C@@H]1CN(C)S(=O)(=O)c1ccccc1	inactive: 1.01
C[C@H](CO)N1C[C@H](C)[C@@H](CN(C)C(=O)CN(C)C)Oc2cc(-c3ccc(C#N)cc3)ccc2S1(=O)=O	inactive: 1.01
Cn1nnnc1SCC1=C(C(=O)[O-])N2C(=O)C(NC(=O)C(OC=O)c3ccccc3)C2SC1.[Na+] (stereo not drawn)	inactive: 0.365
C[C@@H]1CN([C@H](C)CO)C(=O)c2cccc(NS(C)(=O)=O)c2O[C@H]1CN(C)Cc1ccc(C(=O)O)cc1	inactive: 0.994

Compound	relative growth
CCS(=O)(=O)Nc1ccc2c(c1)C(=O)N(C)[C@@H]1CC[C@@H](CC(=O)NCc3ccccc3F)O[C@H]1CO2	inactive: 1.02
Cc1noc(C)c1NC(=O)N[C@H]1CC[C@H](CC(=O)NCCCN(C)C)O[C@@H]1CO	inactive: 0.995
C[C@H]1CCCCO[C@H](CN(C)C(=O)C2CCCCC2)[C@@H](C)CN([C@@H](C)CO)C(=O)c2cc(NC(=O)CCC(F)(F)F)ccc2O1	inactive: 0.996
C[C@@H]1CN([C@@H](C)CO)C(=O)Cc2cc(NC(=O)NC3CCCCC3)ccc2O[C@@H]1CN(C)S(C)(=O)=O	inactive: 1.02
Cc1ccc(S(=O)(=O)Nc2ccc3c(c2)C(=O)N([C@@H](C)CO)C[C@H](C)[C@H](CN(C)Cc2ccc(C(F)(F)F)cc2)O3)cc1	inactive: 1.01
C[C@@H]1CC[C@@]2(OC1)O[C@H]1C[C@H]3[C@H]4C[C@@H](O)[C@H]5C[C@@H](O[C@@H]6O[C@H](CO)[C@H](O[C@@H]7O[C@H](CO)[C@@H](O)[C@H](O[C@@H]8OC[C@@H](O)[C@H](O)[C@H]8O)[C@H]7O[C@@H]7O[C@H](CO)[C@@H](O)[C@H](O)[C@H]7O)[C@H](O)[C@H]6O)[C@H](O)C[C@]5(C)[C@@H]4CC[C@]3(C)[C@H]1[C@@H]2C	inactive: 0.965
C/C=C/C1=CC(=O)[C@H](O)[C@H]1O	inactive: 0.996
C[C@@H]1CN([C@@H](C)CO)C(=O)c2cc(NC(=O)Nc3cccc4ccccc34)ccc2O[C@H]1CN(C)S(=O)(=O)c1ccc(F)cc1	inactive: 0.995
COc1ccc(CN(C)C[C@@H]2OCCCC[C@H](C)Oc3ccc(NS(=O)(=O)c4ccccc4)cc3C(=O)N([C@@H](C)CO)C[C@@H]2C)cc1	inactive: 0.991
Cc1ccc(S(=O)(=O)N(C)C[C@H]2OCCCC[C@@H](C)Oc3ccc(NC(=O)Nc4c(C)noc4C)cc3C(=O)N([C@H](C)CO)C[C@@H]2C)cc1	inactive: 1.02
C[C@@H]1CN([C@@H](C)CO)S(=O)(=O)c2ccc(-c3cccc(C(=O)N(C)C)c3)cc2O[C@H]1CN(C)C(=O)Cc1ccccn1	inactive: 1.01
O=S1(=O)CC[C@H](S(=O)(=O)[C@H]2CCS(=O)(=O)C2)C1	inactive: 0.883
COc1ccccc1-c1ccc2c(c1)O[C@H](CN(C)C(=O)c1ccncc1)[C@H](C)CN([C@H](C)CO)S2(=O)=O	inactive: 0.981
COc1ccc(S(=O)(=O)N(C)C[C@@H]2Oc3c(NC(=O)c4cnccn4)cccc3C(=O)N([C@H](C)CO)C[C@@H]2C)cc1	inactive: 1.01
O=c1cn[nH]c(Nc2ccccc2)n1	inactive: 0.964
Cc1noc(C)c1NC(=O)N(C)C[C@H]1Oc2ccc(NS(=O)(=O)c3cn(C)cn3)cc2CC(=O)N([C@@H](C)CO)C[C@@H]1C	inactive: 1
CCN(CC)C(=O)[C@@H]1C[C@@H](N)CN1S(=O)(=O)N1CCCCCC1	inactive: 1.01
C[C@H](CO)N1C[C@H](C)[C@@H](CN(C)S(=O)(=O)c2ccc(F)cc2)Oc2c(NS(=O)(=O)c3ccc(F)cc3)cccc2C1=O	inactive: 1
C[C@@H]1CN([C@H](C)CO)C(=O)Cc2cc(NC(=O)CCC(F)(F)F)ccc2O[C@@H]1CN(C)S(=O)(=O)c1cccs1	inactive: 0.992
Nc1ncnc2c1ncn2[C@H]1O[C@H](COP(=O)(O)O)[C@@H](O)[C@H]1O	inactive: 0.992

Compound	relative growth
COCC(=O)Nc1ccc2c(c1)C(=O)N(C)C[C@H](OC)[C@@H](C)CN(C(=O)c1ccccc1F)[C@@H](C)CO2	inactive: 1.01
CCN1CCN(Cc2ccc(C(=O)Nc3ccc(C)c(Oc4ccc5c(c4)CC(=O)N5)c3)cc2C(F)(F)F)CC1	inactive: 0.931
Cn1c(=O)c2cc(S(=O)(=O)N3CCOCC3)ccc2n(C)c1=O	inactive: 0.98
C[C@H](CO)N1C[C@H](C)[C@H](CN(C)S(=O)(=O)c2ccc3c(c2)OCCCO3)OCc2cnnn2CCCC1=O	inactive: 0.947
O=C(C[C@@H]1CC[C@H]2[C@@H](COC[C@H](O)CN2C(=O)c2ccncc2)O1)NCc1ccc(-c2ccccc2)cc1	inactive: 0.983
COc1ccccc1C#Cc1ccc2c(c1)O[C@H](CN(C)C(C)=O)[C@H](C)CN([C@H](C)CO)S2(=O)=O	inactive: 0.999
CC(C)NC(=O)N(C)C[C@@H]1OCc2cn(nn2)CCCC(=O)N([C@@H](C)CO)C[C@H]1C	inactive: 0.918
CO[C@H]1O[C@H](CO)C(=O)C(=O)[C@@H]1N	inactive: 1.01
CNC[C@H]1Oc2ccc(NS(=O)(=O)c3cn(C)cn3)cc2C(=O)N([C@H](C)CO)C[C@H]1C	inactive: 0.998
Cc1noc(C)c1NC(=O)N(C)C[C@@H]1Oc2ccc(NC(=O)Nc3ccc(C(F)(F)F)cc3)cc2C(=O)N([C@@H](C)CO)C[C@@H]1C	inactive: 0.972
C[C@H]1CN([C@@H](C)CO)C(=O)c2cccc(NS(=O)(=O)c3ccccc3)c2O[C@@H]1CN(C)CC1CC1	inactive: 0.993
C[C@@H]1CN([C@H](C)CO)C(=O)c2cc(-c3cccc(C(=O)N(C)C)c3)cnc2O[C@H]1CN(C)S(=O)(=O)c1cccc(F)c1	inactive: 0.987
COc1ccc(S(=O)(=O)Nc2ccc3c(c2)C(=O)N([C@H](C)CO)C[C@H](C)[C@@H](CN(C)C(=O)Nc2cccc4ccccc24)O3)cc1	inactive: 0.989
CC(C)(C)[S@@](=O)N1Cc2cc(C(=O)N3CCc4ccccc4C3)nc(-c3cccc(-c4cncnc4)c3)c2[C@H]1CCO	inactive: 0.984
Cc1noc(C)c1NC(=O)Nc1ccc2c(c1)CC(=O)N([C@H](C)CO)C[C@H](C)[C@@H](CN(C)Cc1ccc(Oc3ccccc3)cc1)O2	inactive: 0.955
C[C@@H]1CN([C@H](C)CO)C(=O)Cc2cc(NC(=O)C3CCCCC3)ccc2O[C@H]1CN(C)Cc1ccc(-c2ccccc2)cc1	inactive: 1.01
CN(C)C(=O)C[C@@H]1C=C[C@H](NC(=O)C2CC2)[C@@H](CO)O1	inactive: 0.917
CCN1C[C@]23CN(Cc4cnn(C)c4)C[C@@H](C[C@H]2S1(=O)=O)O3	inactive: 1
